# Test results reported in a collection of fitness landscapes (doi:10.1016/j.celrep.2020.107928).
# The full ranking holds about 81,000 sequences; the median of “one-hybrid fitness for binding NBS DNA” is about -0.1, and the highest 2% start at about 0.36. The list shows a part of the results.
# B1: Caulobacter ParB omega fusion; a variant is named by its letters at X, in order, B8GW30 (parent)
# chain: MESVVVGEPGMSEGRRGLGRGLSALLGEVDAAPAQAPGEQLGGSREAPIEILQRNPDQPRRTFREEDLEDLSNSIREKGVLQPILVRPSPDTAGEYQIVAGERAWRAAQRAGLKTVPIMVRELDDLAVLEIGIIENVQRADLNVLEEALSYKVLMEKFERTQENIAQTIGKSXSHVANXMRLLXLPDEVQSYLVSGELTAXHARAIAAAADPVALAKQIIEGGLSVRETEALARKAPNLSAGKSKGGRPPRVKDTDTQALESDLSSVLGLDVSIDHRGSTGTLTITYATLEQLDDLCNRLTRGI
# Variants of: B1
# Test: one-hybrid fitness for binding NBS DNA (the Noc-binding site; scaled: cognate 1, non-cognate 0); higher = stronger binding
# Conditions: with NBS DNA site
# Summary of the method: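 The reporter was HIS3, with the binding site 19 bp from the promoter, in E. coli USO used for bacterial one-hybrid selection of Caulobacter ParB libraries with four specificity codons randomised. Growth was on M9 lacking histidine, with 0.1 mM IPTG and 5 mM 3-AT, for 48 hours at 37°C. Illumina sequencing covered plasmids before and after selection; three replicate libraries were pooled and variants with under 10 reads dropped. A fitness score is the log change in variant-to-wild-type read ratio, rescaled to the cognate and non-cognate references.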
row,Variant,one-hybrid fitness for binding NBS DNA
1,EWPT,≤ 0.2
2,WYNG,≤ 0.2
3,EAPD,≤ 0.2
4,WQIG,≤ 0.2
5,DQQG,≤ 0.2
6,LPEC,≤ 0.2
7,LLFC,≤ 0.2
8,TYLR,≤ 0.2
9,PTQT,≤ 0.2
10,YIDF,≤ 0.2
11,NTMH,≤ 0.2
12,RDGI,≤ 0.2
13,KHAY,≤ 0.2
14,MAQS,≤ 0.2
15,SPFR,≤ 0.2
16,QSHS,0.381
17,HDVA,≤ 0.2
18,AQRF,≤ 0.2
19,HQQS,≤ 0.2
20,ISPI,≤ 0.2
21,NHYS,≤ 0.2
22,SMDG,≤ 0.2
23,LIMR,≤ 0.2
24,QYFS,≤ 0.2

row,Variant,one-hybrid fitness for binding NBS DNA
1,FFKS,≤ 0.2
2,QNVS,≤ 0.2
3,ETLP,≤ 0.2
4,LFVN,≤ 0.2
5,PGTC,≤ 0.2
6,GLTR,≤ 0.2
7,YPDR,≤ 0.2
8,IWHG,≤ 0.2
9,HVNK,≤ 0.2
10,RGCS,≤ 0.2
11,THTI,≤ 0.2
12,QMKN,0.4
13,YKHY,≤ 0.2
14,WVHL,≤ 0.2
15,TRCG,≤ 0.2
16,SVLR,≤ 0.2
17,VRAQ,≤ 0.2
18,PYVG,≤ 0.2
19,PGRM,≤ 0.2
20,AHAK,≤ 0.2
21,DHSG,≤ 0.2
22,SWPE,≤ 0.2
23,SWAS,≤ 0.2
24,SAGN,≤ 0.2

row,Variant,one-hybrid fitness for binding NBS DNA
1,HTGL,≤ 0.2
2,MYTC,≤ 0.2
3,KPLN,≤ 0.2
4,ACDC,≤ 0.2
5,PQQW,≤ 0.2
6,NWRR,≤ 0.2
7,HYEL,≤ 0.2
8,FSSD,≤ 0.2
9,LCQS,≤ 0.2
10,ASHH,≤ 0.2
11,QTDI,≤ 0.2
12,LREA,≤ 0.2
13,WMTV,≤ 0.2
14,ARLC,≤ 0.2
15,RTLF,≤ 0.2
16,FEPI,≤ 0.2
17,KQFN,≤ 0.2
18,RCSK,≤ 0.2
19,QWLY,≤ 0.2
20,LAKY,≤ 0.2
21,MRVT,≤ 0.2
22,RSTL,≤ 0.2
23,CLPL,≤ 0.2
24,SPER,≤ 0.2

row,Variant,one-hybrid fitness for binding NBS DNA
1,NRTE,≤ 0.2
2,NVDS,≤ 0.2
3,LENS,≤ 0.2
4,TVMR,≤ 0.2
5,YRMM,≤ 0.2
6,PYWT,0.298
7,FVYG,≤ 0.2
8,PTEN,≤ 0.2
9,GSTF,≤ 0.2
10,NMER,≤ 0.2
11,KLRV,≤ 0.2
12,MRQG,≤ 0.2
13,LHRV,≤ 0.2
14,RANW,≤ 0.2
15,NDNI,≤ 0.2
16,DQYG,≤ 0.2
17,PSKL,≤ 0.2
18,ITEV,≤ 0.2
19,DMRR,≤ 0.2
20,APWP,≤ 0.2
21,HFRF,≤ 0.2
22,SYER,≤ 0.2
23,HREL,≤ 0.2
24,ISMG,≤ 0.2

row,Variant,one-hybrid fitness for binding NBS DNA
1,VNHG,≤ 0.2
2,MGLP,≤ 0.2
3,QMTT,0.463
4,CNWG,≤ 0.2
5,GMMR,≤ 0.2
6,SMSY,≤ 0.2
7,TLCE,≤ 0.2
8,LHTE,≤ 0.2
9,KMSS,≤ 0.2
10,FLHR,≤ 0.2
11,MLWF,≤ 0.2
12,TLKW,≤ 0.2
13,MNDC,≤ 0.2
14,KNTL,≤ 0.2
15,VPEK,≤ 0.2
16,ILSW,≤ 0.2
17,VMCG,≤ 0.2
18,NFMR,≤ 0.2
19,YEAF,≤ 0.2
20,MSVT,≤ 0.2
21,QSSD,≤ 0.2
22,LYPT,≤ 0.2
23,KMSN,≤ 0.2
24,QPRG,≤ 0.2

row,Variant,one-hybrid fitness for binding NBS DNA
1,VQGR,≤ 0.2
2,AGSE,≤ 0.2
3,FGLS,≤ 0.2
4,HNMC,≤ 0.2
5,LTPY,≤ 0.2
6,RIPG,≤ 0.2
7,PNMA,≤ 0.2
8,TVRF,≤ 0.2
9,NYST,≤ 0.2
10,ALDR,≤ 0.2
11,KTRP,≤ 0.2
12,PHCW,≤ 0.2
13,QCPC,≤ 0.2
14,LTKE,≤ 0.2
15,GDTF,≤ 0.2
16,PRHG,≤ 0.2
17,QVLE,≤ 0.2
18,NVAG,≤ 0.2
19,HRPW,≤ 0.2
20,YTRH,≤ 0.2
21,QYKS,0.643
22,DCFS,≤ 0.2
23,SRMV,≤ 0.2
24,SLWC,≤ 0.2

row,Variant,one-hybrid fitness for binding NBS DNA
1,RKNG,≤ 0.2
2,WTLR,≤ 0.2
3,LPDT,≤ 0.2
4,RATH,≤ 0.2
5,DYIA,≤ 0.2
6,PAIT,≤ 0.2
7,CHFG,≤ 0.2
8,ISGR,≤ 0.2
9,RWGE,≤ 0.2
10,AYKG,≤ 0.2
11,RWPC,≤ 0.2
12,DVWY,≤ 0.2
13,DHAD,≤ 0.2
14,DKQS,≤ 0.2
15,HWKA,≤ 0.2
16,PHKW,≤ 0.2
17,SRGI,≤ 0.2
18,GVTM,≤ 0.2
19,DPRP,≤ 0.2
20,KREG,≤ 0.2
21,PHWS,≤ 0.2
22,LKLG,≤ 0.2
23,KRYR,0.545
24,NTER,≤ 0.2

row,Variant,one-hybrid fitness for binding NBS DNA
1,GRDD,≤ 0.2
2,IEHR,≤ 0.2
3,KNAT,≤ 0.2
4,QTYC,≤ 0.2
5,SCCS,≤ 0.2
6,LMNR,≤ 0.2
7,KYLW,≤ 0.2
8,QHVV,≤ 0.2
9,VPGR,≤ 0.2
10,LHKG,≤ 0.2
11,KLGY,≤ 0.2
12,TLFL,≤ 0.2
13,QATE,≤ 0.2
14,GRNE,≤ 0.2
15,DLQW,≤ 0.2
16,AQDP,≤ 0.2
17,YTLL,≤ 0.2
18,AYGS,≤ 0.2
19,NWFS,≤ 0.2
20,CTPA,≤ 0.2
21,PCAH,≤ 0.2
22,SWYG,≤ 0.2
23,NCKH,≤ 0.2
24,WSLA,≤ 0.2

row,Variant,one-hybrid fitness for binding NBS DNA
1,FFKR,≤ 0.2
2,KQYG,≤ 0.2
3,GPNA,≤ 0.2
4,MCQG,≤ 0.2
5,PNVE,≤ 0.2
6,IESM,≤ 0.2
7,FNMT,≤ 0.2
8,QTEG,≤ 0.2
9,TVSR,≤ 0.2
10,PHWA,≤ 0.2
11,CGFR,≤ 0.2
12,QKDV,≤ 0.2
13,DPRK,≤ 0.2
14,YIIG,≤ 0.2
15,SHPK,≤ 0.2
16,NTYW,≤ 0.2
17,AYYA,≤ 0.2
18,ELMR,≤ 0.2
19,RWPS,≤ 0.2
20,CWKP,≤ 0.2
21,WGLT,≤ 0.2
22,QLGM,≤ 0.2
23,REMG,≤ 0.2
24,HAKP,≤ 0.2

row,Variant,one-hybrid fitness for binding NBS DNA
1,EGTS,≤ 0.2
2,NHDR,≤ 0.2
3,QKRR,0.993
4,PNLN,≤ 0.2
5,VSLD,≤ 0.2
6,LLWT,≤ 0.2
7,SHKG,≤ 0.2
8,HSRY,≤ 0.2
9,ESTI,≤ 0.2
10,LNQW,≤ 0.2
11,PFVA,≤ 0.2
12,RAAE,≤ 0.2
13,EVGC,≤ 0.2
14,PALD,≤ 0.2
15,GATV,≤ 0.2
16,ITTI,≤ 0.2
17,YDYM,≤ 0.2
18,QHIM,≤ 0.2
19,AKDK,≤ 0.2
20,RKNY,0.27
21,TGDF,≤ 0.2
22,QFKC,≤ 0.2
23,SPIP,≤ 0.2
24,DGIS,≤ 0.2

row,Variant,one-hybrid fitness for binding NBS DNA
1,GISY,≤ 0.2
2,NWRG,≤ 0.2
3,QREA,0.288
4,DTWG,≤ 0.2
5,RLYL,≤ 0.2
6,EMAT,≤ 0.2
7,SRTY,≤ 0.2
8,MSSH,≤ 0.2
9,KRMQ,≤ 0.2
10,KRHY,0.254
11,EAER,≤ 0.2
12,SGLY,≤ 0.2
13,NQSS,≤ 0.2
14,HSVL,≤ 0.2
15,HRME,≤ 0.2
16,HGDR,≤ 0.2
17,AEEY,≤ 0.2
18,HSST,≤ 0.2
19,PFKE,≤ 0.2
20,RRRR,0.904
21,FHPS,≤ 0.2
22,NDIV,≤ 0.2
23,RGMW,≤ 0.2
24,GGRR,≤ 0.2

row,Variant,one-hybrid fitness for binding NBS DNA
1,HVSY,≤ 0.2
2,QHQV,≤ 0.2
3,PYDN,≤ 0.2
4,PHQL,≤ 0.2
5,HRRV,≤ 0.2
6,RALD,≤ 0.2
7,RFQH,≤ 0.2
8,VKIS,≤ 0.2
9,SPTL,≤ 0.2
10,QLRN,0.319
11,PTMQ,≤ 0.2
12,NPSH,≤ 0.2
13,QLVF,≤ 0.2
14,LPYN,≤ 0.2
15,ELRG,≤ 0.2
16,TTWD,≤ 0.2
17,VEHY,≤ 0.2
18,VNKN,≤ 0.2
19,RQDD,≤ 0.2
20,ALMT,≤ 0.2
21,ARMT,≤ 0.2
22,RNDD,≤ 0.2
23,VYPC,≤ 0.2
24,VLRD,≤ 0.2

row,Variant,one-hybrid fitness for binding NBS DNA
1,AVVY,≤ 0.2
2,TNPH,≤ 0.2
3,KLPC,≤ 0.2
4,ALKR,≤ 0.2
5,MFLG,≤ 0.2
6,TAVS,≤ 0.2
7,MRNS,≤ 0.2
8,PLTK,≤ 0.2
9,WSCR,≤ 0.2
10,YIRR,≤ 0.2
11,KASV,≤ 0.2
12,REMK,≤ 0.2
13,HASI,≤ 0.2
14,KARN,≤ 0.2
15,HYTR,≤ 0.2
16,QNQL,≤ 0.2
17,FTKC,≤ 0.2
18,QWLL,≤ 0.2
